{
  "source": "the supplement of paper PMC8728848",
  "test_in_all_cases": "glycan array binding signal (z-score within array); higher = stronger binding",
  "details_in_all_cases": "glycan notation: IUPAC condensed, linker removed",
  "key": {"[1]": {"biological_target": "Gal(b1-4)GlcNAc(b1-2)[Gal(b1-4)GlcNAc(b1-6)]Man(a1-6)[GlcNAc(b1-4)][Gal(b1-4)GlcNAc(b1-2)Man(a1-3)]Man(b1-4)GlcNAc(b1-4)GlcNAc", "method_in_brief": "(§1)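 Glycan array data were curated from 3228 arrays in the Consortium for Functional Glycomics database and kept only where the protein sequence was available. Glycan names were converted to IUPAC-condensed notation, and columns mapping to the same glycan were averaged. The binding signal is a within-array Z-score, averaged across arrays of the same protein sequence at different concentrations or buffers and across linkers. Negative Z-scores can be read as non-binding.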"}, "[2]": {"biological_target": "Gal(b1-4)GlcNAc(b1-2)[Gal(b1-4)GlcNAc(b1-6)]Man(a1-6)[GlcNAc(b1-4)][Gal(b1-4)GlcNAc(b1-2)[Gal(b1-4)GlcNAc(b1-4)]Man(a1-3)]Man(b1-4)GlcNAc(b1-4)[Fuc(a1-6)]GlcNAc", "method_in_brief": "as §1"}, "[3]": {"biological_target": "Gal(b1-4)GlcNAc(b1-3)Gal(b1-3)GalNAc", "method_in_brief": "as §1"}, "[4]": {"biological_target": "Gal(b1-4)GlcNAc(b1-3)Gal(b1-3)GlcNAc", "method_in_brief": "as §1"}, "[5]": {"biological_target": "Gal(b1-4)GlcNAc(b1-3)Gal(b1-4)Glc", "method_in_brief": "as §1"}, "[6]": {"biological_target": "Gal(b1-4)GlcNAc(b1-3)Gal(b1-4)GlcNAc", "method_in_brief": "as §1"}, "[7]": {"biological_target": "Gal(b1-4)GlcNAc(b1-3)Gal(b1-4)GlcNAc(b1-2)Man(a1-3)[Gal(b1-4)GlcNAc(b1-3)Gal(b1-4)GlcNAc(b1-2)Man(a1-6)]Man(b1-4)GlcNAc(b1-4)GlcNAc", "method_in_brief": "as §1"}, "[8]": {"biological_target": "Gal(b1-4)GlcNAc(b1-3)Gal(b1-4)GlcNAc(b1-2)Man(a1-3)[Gal(b1-4)GlcNAc(b1-3)Gal(b1-4)GlcNAc(b1-2)Man(a1-6)]Man(b1-4)GlcNAc(b1-4)[Fuc(a1-6)]GlcNAc", "method_in_brief": "as §1"}, "[9]": {"biological_target": "Gal(b1-4)GlcNAc(b1-3)Gal(b1-4)GlcNAc(b1-2)[Gal(b1-4)GlcNAc(b1-3)Gal(b1-4)GlcNAc(b1-6)]Man(a1-6)[Gal(b1-4)GlcNAc(b1-3)Gal(b1-4)GlcNAc(b1-2)Man(a1-3)]Man(b1-4)GlcNAc(b1-4)GlcNAc", "method_in_brief": "as §1"}, "[10]": {"biological_target": "Gal(b1-4)GlcNAc(b1-3)Gal(b1-4)GlcNAc(b1-2)[Gal(b1-4)GlcNAc(b1-3)Gal(b1-4)GlcNAc(b1-6)]Man(a1-6)[Gal(b1-4)GlcNAc(b1-3)Gal(b1-4)GlcNAc(b1-2)Man(a1-3)]Man(b1-4)GlcNAc(b1-4)[Fuc(a1-6)]GlcNAc", "method_in_brief": "as §1"}, "[11]": {"biological_target": "Gal(b1-4)GlcNAc(b1-3)Gal(b1-4)GlcNAc(b1-3)Gal(b1-4)GlcNAc", "method_in_brief": "as §1"}, "[12]": {"biological_target": "Gal(b1-4)GlcNAc(b1-3)Gal(b1-4)GlcNAc(b1-3)Gal(b1-4)GlcNAc(b1-2)Man(a1-3)[Gal(b1-4)GlcNAc(b1-3)Gal(b1-4)GlcNAc(b1-3)Gal(b1-4)GlcNAc(b1-2)Man(a1-6)]Man(b1-4)GlcNAc(b1-4)GlcNAc", "method_in_brief": "as §1"}, "[13]": {"biological_target": "Gal(b1-4)GlcNAc(b1-3)Gal(b1-4)GlcNAc(b1-3)Gal(b1-4)GlcNAc(b1-2)Man(a1-3)[Gal(b1-4)GlcNAc(b1-3)Gal(b1-4)GlcNAc(b1-3)Gal(b1-4)GlcNAc(b1-2)Man(a1-6)]Man(b1-4)GlcNAc(b1-4)[Fuc(a1-6)]GlcNAc", "method_in_brief": "as §1"}, "[14]": {"biological_target": "Gal(b1-4)GlcNAc(b1-3)Gal(b1-4)GlcNAc(b1-3)Gal(b1-4)GlcNAc(b1-2)[Gal(b1-4)GlcNAc(b1-3)Gal(b1-4)GlcNAc(b1-3)Gal(b1-4)GlcNAc(b1-6)]Man(a1-6)[Gal(b1-4)GlcNAc(b1-3)Gal(b1-4)GlcNAc(b1-3)Gal(b1-4)GlcNAc(b1-2)Man(a1-3)]Man(b1-4)GlcNAc(b1-4)[Fuc(a1-6)]GlcNAc", "method_in_brief": "as §1"}, "[15]": {"biological_target": "Gal(b1-4)GlcNAc(b1-3)Gal(b1-4)GlcNAc(b1-3)Gal(b1-4)GlcNAc(b1-3)Gal(b1-4)GlcNAc(b1-2)Man(a1-3)[Gal(b1-4)GlcNAc(b1-3)Gal(b1-4)GlcNAc(b1-3)Gal(b1-4)GlcNAc(b1-3)Gal(b1-4)GlcNAc(b1-2)Man(a1-6)]Man(b1-4)GlcNAc(b1-4)GlcNAc", "method_in_brief": "as §1"}, "[16]": {"biological_target": "Gal(b1-4)GlcNAc(b1-3)Gal(b1-4)GlcNAc(b1-3)Gal(b1-4)GlcNAc(b1-3)Gal(b1-4)GlcNAc(b1-2)Man(a1-3)[Gal(b1-4)GlcNAc(b1-3)Gal(b1-4)GlcNAc(b1-3)Gal(b1-4)GlcNAc(b1-3)Gal(b1-4)GlcNAc(b1-2)Man(a1-6)]Man(b1-4)GlcNAc(b1-4)[Fuc(a1-6)]GlcNAc", "method_in_brief": "as §1"}, "[17]": {"biological_target": "Gal(b1-4)GlcNAc(b1-3)Gal(b1-4)GlcNAc(b1-3)Gal(b1-4)GlcNAc(b1-3)Gal(b1-4)GlcNAc(b1-2)[Gal(b1-4)GlcNAc(b1-3)Gal(b1-4)GlcNAc(b1-3)Gal(b1-4)GlcNAc(b1-3)Gal(b1-4)GlcNAc(b1-6)]Man(a1-6)[Gal(b1-4)GlcNAc(b1-3)Gal(b1-4)GlcNAc(b1-3)Gal(b1-4)GlcNAc(b1-3)Gal(b1-4)GlcNAc(b1-2)Man(a1-3)]Man(b1-4)GlcNAc(b1-4)[Fuc(a1-6)]GlcNAc", "method_in_brief": "as §1"}, "[18]": {"biological_target": "Gal(b1-4)GlcNAc(b1-3)Gal(b1-4)GlcNAc(b1-3)Gal(b1-4)GlcNAc(b1-3)Gal(b1-4)GlcNAc(b1-3)Gal(b1-4)GlcNAc(b1-2)Man(a1-3)[Gal(b1-4)GlcNAc(b1-3)Gal(b1-4)GlcNAc(b1-3)Gal(b1-4)GlcNAc(b1-3)Gal(b1-4)GlcNAc(b1-3)Gal(b1-4)GlcNAc(b1-2)Man(a1-6)]Man(b1-4)GlcNAc(b1-4)GlcNAc", "method_in_brief": "as §1"}, "[19]": {"biological_target": "Gal(b1-4)GlcNAc(b1-3)Gal(b1-4)GlcNAc(b1-3)Gal(b1-4)GlcNAc(b1-3)Gal(b1-4)GlcNAc(b1-3)Gal(b1-4)GlcNAc(b1-2)Man(a1-3)[Gal(b1-4)GlcNAc(b1-3)Gal(b1-4)GlcNAc(b1-3)Gal(b1-4)GlcNAc(b1-3)Gal(b1-4)GlcNAc(b1-3)Gal(b1-4)GlcNAc(b1-2)Man(a1-6)]Man(b1-4)GlcNAc(b1-4)[Fuc(a1-6)]GlcNAc", "method_in_brief": "as §1"}, "[20]": {"biological_target": "Gal(b1-4)GlcNAc(b1-3)Gal(b1-4)GlcNAc(b1-3)Gal(b1-4)GlcNAc(b1-3)Gal(b1-4)GlcNAc(b1-3)Gal(b1-4)GlcNAc(b1-2)[Gal(b1-4)GlcNAc(b1-3)Gal(b1-4)GlcNAc(b1-3)Gal(b1-4)GlcNAc(b1-3)Gal(b1-4)GlcNAc(b1-3)Gal(b1-4)GlcNAc(b1-6)]Man(a1-6)[Gal(b1-4)GlcNAc(b1-3)Gal(b1-4)GlcNAc(b1-3)Gal(b1-4)GlcNAc(b1-3)Gal(b1-4)GlcNAc(b1-3)Gal(b1-4)GlcNAc(b1-2)Man(a1-3)]Man(b1-4)GlcNAc(b1-4)[Fuc(a1-6)]GlcNAc", "method_in_brief": "as §1"}, "[21]": {"biological_target": "Gal(b1-4)GlcNAc(b1-3)Gal(b1-4)GlcNAc(b1-3)Gal(b1-4)GlcNAc(b1-3)Gal(b1-4)GlcNAc(b1-3)Gal(b1-4)GlcNAc(b1-3)Gal(b1-4)GlcNAc(b1-2)Man(a1-3)[Gal(b1-4)GlcNAc(b1-3)Gal(b1-4)GlcNAc(b1-3)Gal(b1-4)GlcNAc(b1-3)Gal(b1-4)GlcNAc(b1-3)Gal(b1-4)GlcNAc(b1-3)Gal(b1-4)GlcNAc(b1-2)Man(a1-6)]Man(b1-4)GlcNAc(b1-4)GlcNAc", "method_in_brief": "as §1"}, "[22]": {"biological_target": "Gal(b1-4)GlcNAc(b1-3)Gal(b1-4)GlcNAc(b1-3)GalNAc", "method_in_brief": "as §1"}, "[23]": {"biological_target": "Gal(b1-4)GlcNAc(b1-3)Gal(b1-4)GlcNAc(b1-3)[Gal(b1-4)GlcNAc(b1-3)Gal(b1-4)GlcNAc(b1-6)]GalNAc", "method_in_brief": "as §1"}},
  "note": "This is one part of the list.",
  "data": [
    {"binder": "PX9961T-pdi-555-33-555 (Parabacteroides distasonis) (protein) FDEETAFQSPTLVYVNTVASLYNNMFKIMGNDRHVYDLNTFSSDEAMLPCRIGDWEDGGLWQNIFLHRWGTMNDLTKNSWDFLYEQIGKCNQSVDKLQAFAEEQPDVEYFKVYLEEVRAVRAFFYYELLDLFARVPLVTSSTTPMSEVKQSERSVVFNFVRSELEEALPYLSDNRSNQKGEYYGRITKPVAYMILAKLALNAEVYADDNWTDGNRPAGKNIKFTVDGKEMNAWEATIAYVDKLEALGYKLQGNFSENFAVANETSVENIFTVPMDPVAYPDAKDYNLVRTRHYDHATAYGQSGWNGSCATVKAMNVFKFGTADEDPRCKLTYFTGEVTGPDGKTIYTEWDGQKVPLKYEPNAPKVYMDASDGLLVKTAGARMAKYEFDQNAQDGGNLHGNDCVIFRFADALLMKAEAKIRLGQNGDDEVNQVRNRVGAKPLQNVTLDTLLDERMLELAWEGVRRQDLIRFGKFTEATVDRYVGVKHFASSLDYQEDKTGYTTVFSIYADILSLNPNLTQNPGY", "values": [
      {"measurement": "glycan array binding signal (z-score)", "setting": "[1]", "value": -0.325},
      {"measurement": "glycan array binding signal (z-score)", "setting": "[2]", "value": -0.293},
      {"measurement": "glycan array binding signal (z-score)", "setting": "[3]", "value": -0.561},
      {"measurement": "glycan array binding signal (z-score)", "setting": "[4]", "value": 0.293},
      {"measurement": "glycan array binding signal (z-score)", "setting": "[5]", "value": -0.468},
      {"measurement": "glycan array binding signal (z-score)", "setting": "[6]", "value": -0.308},
      {"measurement": "glycan array binding signal (z-score)", "setting": "[7]", "value": 1.46},
      {"measurement": "glycan array binding signal (z-score)", "setting": "[8]", "value": 0.672},
      {"measurement": "glycan array binding signal (z-score)", "setting": "[9]", "value": 1.53},
      {"measurement": "glycan array binding signal (z-score)", "setting": "[10]", "value": 0.117},
      {"measurement": "glycan array binding signal (z-score)", "setting": "[11]", "value": -0.104},
      {"measurement": "glycan array binding signal (z-score)", "setting": "[12]", "value": 0.899},
      {"measurement": "glycan array binding signal (z-score)", "setting": "[13]", "value": -0.094},
      {"measurement": "glycan array binding signal (z-score)", "setting": "[14]", "value": -0.136},
      {"measurement": "glycan array binding signal (z-score)", "setting": "[15]", "value": -0.456},
      {"measurement": "glycan array binding signal (z-score)", "setting": "[16]", "value": 0.109},
      {"measurement": "glycan array binding signal (z-score)", "setting": "[17]", "value": -0.108},
      {"measurement": "glycan array binding signal (z-score)", "setting": "[18]", "value": 0.135},
      {"measurement": "glycan array binding signal (z-score)", "setting": "[19]", "value": -0.259},
      {"measurement": "glycan array binding signal (z-score)", "setting": "[20]", "value": 0.047},
      {"measurement": "glycan array binding signal (z-score)", "setting": "[21]", "value": -0.44},
      {"measurement": "glycan array binding signal (z-score)", "setting": "[22]", "value": 0.322},
      {"measurement": "glycan array binding signal (z-score)", "setting": "[23]", "value": 0.263}
    ]}
  ]
}
